The text below walks through data of patent US20250276979A1, “SARS-COV2 MAIN PROTEASE INHIBITORS” (Gilead Sciences, Inc., priority 2024, published 2025).

The target of the experiment is recombinant SARS-CoV-2 Main protease (Mpro) (Severe acute respiratory syndrome coronavirus 2, UniProt P0DTD1). In words: Cov Mpro Biochemical IC50 Assay. To be noted: 7.5 nM Mpro, fluorogenic peptide substrate 40 μM, 20 min pre-incubation.

What is called IC50 is the midpoint of a concentration-inhibition curve. For `O=C1C[C@H](n2c(=O)[nH]c3cc(-c4ccccc4Cl)sc3c2=O)CCCN1` (single isomer, unassigned) [Example 21], the 50% inhibitory concentration (IC50) came out at 5.97 nM.

In the case of `O=C1C[C@@H](n2c(=O)[nH]c3cc(-c4ccccc4Cl)sc3c2=O)CCCN1` (single isomer, unassigned) [Example 22], the half-maximal inhibitory concentration (IC50) amounted to 69.9 nM.

For `COc1ccc(Cl)c(-c2cc3[nH]c(=O)n([C@@H]4CCCNC(=O)C4)c(=O)c3s2)c1` (single isomer, unassigned) [Example 23], the 50% inhibitory concentration (IC50) is below 3.75 nM.

With `COc1ccc(Cl)c(-c2cc3[nH]c(=O)n([C@H]4CCCNC(=O)C4)c(=O)c3s2)c1` (single isomer, unassigned) [Example 24], the IC50 was found to be 55 nM.

Consider `COc1cc(-c2cc3[nH]c(=O)n([C@@H]4CC(=O)NC[C@@H](C)C4)c(=O)c3s2)c(Cl)cc1F` (single isomer, unassigned) [Example 53], for which the half-inhibitory concentration (IC50) was determined as 10.1 nM.

For `COc1cc(-c2cc3[nH]c(=O)n([C@@H]4CC(=O)NC[C@H](C)C4)c(=O)c3s2)c(Cl)cc1F` (single isomer, unassigned) [Example 54], the IC50 was 6.38 nM.

Consider `O=C1CC(n2c(=O)[nH]c3cc(-c4ccccc4Cl)sc3c2=O)CCN1` (stereo not drawn) [Example 1, 6-(2-chlorophenyl)-3-(2-oxopiperidin-4-yl)thieno[3,2-d]pyrimidine-2,4(1H,311)-dione], for which the 50% inhibitory concentration (IC50) came to 92.8 nM.

On to `O=C1C[C@H](n2c(=O)[nH]c3cc(-c4ccccc4Cl)sc3c2=O)CN1` [Example 2, 6-(2-chlorophenyl)-3-[(3S)-5-oxopyrrolidin-3-yl]-1H-thieno[3,2-d]pyrimidine-2,4-dione], for which the IC50 was above 50000 nM.

For the compound `O=C1C[C@@H](n2c(=O)[nH]c3cc(-c4ccccc4Cl)sc3c2=O)CN1` [Example 3, 6-(2-chlorophenyl)-3-[(3R)-5-oxopyrrolidin-3-yl]-1H-thieno[3,2-d]pyrimidine-2,4-dione], the concentration for half-maximal inhibition (IC50) was determined as 1610 nM.

On to `O=C1C[C@H](n2c(=O)[nH]c3cc(-c4ccccc4Cl)sc3c2=O)CCN1` [Example 4, (R)-6-(2-chlorophenyl)-3-(2-oxopiperidin-4-yl)thieno[3,2-d]pyrimidine-2,4(1H,3H)-dione], for which the IC50 was found to be 195 nM.

Regarding `O=C1C[C@@H](n2c(=O)[nH]c3cc(-c4ccccc4Cl)sc3c2=O)CCN1` [Example 5, (S)-6-(2-chlorophenyl)-3-(2-oxopiperidin-4-yl)thieno[3,2-d]pyrimidine-2,4(1H,3H)-dione], the IC50 worked out at 24.6 nM.

Consider `O=C1C[C@H](n2c(=O)[nH]c3cc(-c4ccccc4Cl)ccc3c2=O)CCN1` [Example 6, (R)-7-(2-chlorophenyl)-3-(2-oxopiperidin-4-yl)quinazoline-2,4(1H,3H)-dione], for which the IC50 was 30400 nM.

In the case of `COc1ccc(Cl)c(-c2cc3[nH]c(=O)n(C4CCNC(=O)C4)c(=O)c3s2)c1` (stereo not drawn) [Example 7, 6-(2-chloro-5-methoxy-phenyl)-3-(2-oxo-4-piperidyl)-1H-thieno[3,2-d]pyrimidine-2,4-dione], the IC50 is 13.4 nM.

On to `O=C1CC(n2c(=O)[nH]c3cc(-c4ccccc4Cl)sc3c2=O)CCCN1` (stereo not drawn) [Example 8, 6-(2-chlorophenyl)-3-(2-oxoazepan-4-yl)thieno[3,2-d]pyrimidine-2,4(1H,3H)-dione], for which the 50% inhibitory concentration (IC50) turned out to be 16.8 nM.

As for `O=C1CC(n2c(=O)[nH]c3cc(-c4ccccc4Cl)ccc3c2=O)CCCN1` (stereo not drawn) [Example 9, 7-(2-chlorophenyl)-3-(2-oxoazepan-4-yl)quinazoline-2,4(1H,3H)-dione], the IC50 came out at 736 nM.

Take `Cc1cc(-c2cccc(Cl)c2-c2cc3[nH]c(=O)n(C4CCNC(=O)C4)c(=O)c3s2)cnn1` (stereo not drawn) [Example 10, 6-(2-chloro-6-(6-methylpyridazin-4-yl)phenyl)-3-(2-oxopiperidin-4-yl)thieno[3,2-d]pyrimidine-2,4(1H,3H)-dione]: the IC50 amounted to 43 nM.

As for `Cc1cc(-c2cccc(Cl)c2-c2cc3[nH]c(=O)n(C4CCNC(=O)C4)c(=O)c3s2)cn2ncnc12` (stereo not drawn) [Example 11, 6-(2-chloro-6-(8-methyl-[1,2,4]triazolo[1,5-a]pyridin-6-yl)phenyl)-3-(2-oxopiperidin-4-yl)thieno[3,2-d]pyrimidine-2,4(1H,3H)-dione], the IC50 was found to be 26 nM.

`Cn1cc(-c2cccc(Cl)c2-c2cc3[nH]c(=O)n(C4CCNC(=O)C4)c(=O)c3s2)c(C(F)(F)F)n1` (stereo not drawn) [Example 12, 6-(2-chloro-6-(1-methyl-3-(trifluoromethyl)-1H-pyrazol-4-yl)phenyl)-3-(2-oxopiperidin-4-yl)thieno[3,2-d]pyrimidine-2,4(1H,3H)-dione]: the half-inhibitory concentration (IC50) was 187 nM.

With `O=C1CC(n2c(=O)[nH]c3cc(-c4c(Cl)cccc4-c4ccc5c(c4)OC(F)(F)O5)sc3c2=O)CCN1` (stereo not drawn) [Example 13, 6-(2-chloro-6-(2,2-difluorobenzo[d][1,3]dioxol-5-yl)phenyl)-3-(2-oxopiperidin-4-yl)thieno[3,2-d]pyrimidine-2,4(1H,3H)-dione], the IC50 was determined as 408 nM.

For `COc1cc(-c2cc3[nH]c(=O)n(C4CCNC(=O)C4)c(=O)c3s2)c(Cl)cc1F` (stereo not drawn) [Example 14, 6-(2-chloro-4-fluoro-5-methoxyphenyl)-3-(2-oxopiperidin-4-yl)thieno[3,2-d]pyrimidine-2,4(1H,3H)-dione], the IC50 is 25.8 nM.

As for `COc1cnc(Cl)c(-c2cc3[nH]c(=O)n(C4CCNC(=O)C4)c(=O)c3s2)c1` (stereo not drawn) [Example 15, 6-(2-chloro-5-methoxypyridin-3-yl)-3-(2-oxopiperidin-4-yl)thieno[3,2-d]pyrimidine-2,4(1H,3H)-dione], the concentration for half-maximal inhibition (IC50) turned out to be 356 nM.

With `COc1cc(-c2cc3[nH]c(=O)n([C@H]4CCNC(=O)C4)c(=O)c3s2)c(Cl)cc1F` [Example 16, (S)-6-(2-chloro-4-fluoro-5-methoxyphenyl)-3-(2-oxopiperidin-4-yl)thieno[3,2-d]pyrimidine-2,4(1H,3H)-dione], the half-maximal inhibitory concentration (IC50) was determined as 14 nM.

Consider `COc1ccc(Cl)c(-c2cc3[nH]c(=O)n([C@H]4CCNC(=O)C4)c(=O)c3s2)c1` [Example 17, (S)-6-(2-chloro-5-methoxyphenyl)-3-(2-oxopiperidin-4-yl)thieno[3,2-d]pyrimidine-2,4(1H,3H)-dione], for which the concentration for half-maximal inhibition (IC50) stood at 8.89 nM.

Take `COc1cc(Cl)c(-c2cc3[nH]c(=O)n([C@H]4CCNC(=O)C4)c(=O)c3s2)cc1OC` [Example 18, (S)-6-(2-chloro-4,5-dimethoxyphenyl)-3-(2-oxopiperidin-4-yl)thieno[3,2-d]pyrimidine-2,4(1H,3H)-dione]: the IC50 was determined as 63.1 nM.

For the compound `Cc1noc(C)c1-c1cc2[nH]c(=O)n([C@H]3CCNC(=O)C3)c(=O)c2s1` [Example 19, (S)-6-(3,5-dimethylisoxazol-4-yl)-3-(2-oxopiperidin-4-yl)thieno[3,2-d]pyrimidine-2,4(1H,3H)-dione], the IC50 amounted to 2420 nM.

As for `COc1ccc(Cl)c(-c2cc3[nH]c(=O)n(C4CCCNC(=O)C4)c(=O)c3s2)c1` (stereo not drawn) [Example 20, 6-(2-chloro-5-methoxyphenyl)-3-(2-oxoazepan-4-yl)thieno[3,2-d]pyrimidine-2,4(1H,3H)-dione], the half-maximal inhibitory concentration (IC50) was below 3.75 nM.

Regarding `COc1ccc(C#N)c(-c2cc3[nH]c(=O)n(C4CCCNC(=O)C4)c(=O)c3s2)c1` (stereo not drawn) [Example 25, 2-(2,4-dioxo-3-(2-oxoazepan-4-yl)-1,2,3,4-tetrahydrothieno[3,2-d]pyrimidin-6-yl)-4-methoxybenzonitrile], the IC50 was found to be 13 nM.

For the compound `COc1ccc(C#N)c(-c2cc3[nH]c(=O)n([C@H]4CCNC(=O)C4)c(=O)c3s2)c1` [Example 26, (S)-2-(2,4-dioxo-3-(2-oxopiperidin-4-yl)-1,2,3,4-tetrahydrothieno[3,2-d]pyrimidin-6-yl)-4-methoxybenzonitrile], the IC50 was determined as 61.7 nM.

Take `COc1ccc(Cl)c(-c2ccc3c(=O)n(C4CCCNC(=O)C4)c(=O)[nH]c3c2)c1` (stereo not drawn) [Example 27, 7-(2-chloro-5-methoxyphenyl)-3-(2-oxoazepan-4-yl)quinazoline-2,4(1H,3H)-dione]: the half-inhibitory concentration (IC50) is 107 nM.

With `COc1ccc(Cl)c(-c2cc3c(s2)c(=O)n([C@@H]2CCCNC(=O)C2)c(=O)n3CC#N)c1` [Example 28, (R)-2-(6-(2-chloro-5-methoxyphenyl)-2,4-dioxo-3-(2-oxoazepan-4-yl)-3,4-dihydrothieno[3,2-d]pyrimidin-1(2H)-yl)acetonitrile], the IC50 was below 3.75 nM.

On to `COc1ccc(Cl)c(-c2cc3c(s2)c(=O)n([C@@H]2CCCNC(=O)C2)c(=O)n3CCC#N)c1` [Example 29, (R)-3-(6-(2-chloro-5-methoxyphenyl)-2,4-dioxo-3-(2-oxoazepan-4-yl)-3,4-dihydrothieno[3,2-d]pyrimidin-1(2H)-yl)propanenitrile], for which the IC50 was below 3.75 nM.

Consider `COc1cc(-c2cc3[nH]c(=O)n([C@@H]4CCCNC(=O)C4)c(=O)c3s2)c(Cl)cc1F` [Example 30, (R)-6-(2-chloro-4-fluoro-5-methoxyphenyl)-3-(2-oxoazepan-4-yl)thieno[3,2-d]pyrimidine-2,4(1H,3H)-dione], for which the IC50 was below 3.75 nM.

With `COc1cc(-c2cc3[nH]c(=O)n([C@H]4CCCNC(=O)C4)c(=O)c3s2)c(Cl)cc1F` [Example 31, (S)-6-(2-chloro-4-fluoro-5-methoxyphenyl)-3-(2-oxoazepan-4-yl)thieno[3,2-d]pyrimidine-2,4(1H,3H)-dione], the IC50 is 79.4 nM.

For `COc1cc(-c2cc3c(s2)c(=O)n([C@@H]2CCCNC(=O)C2)c(=O)n3C)c(Cl)cc1F` [Example 32, (R)-6-(2-chloro-4-fluoro-5-methoxyphenyl)-1-methyl-3-(2-oxoazepan-4-yl)thieno[3,2-d]pyrimidine-2,4(1H,3H)-dione], the IC50 is 5.56 nM.

In the case of `COc1cc(-c2cc3c(s2)c(=O)n([C@H]2CCCNC(=O)C2)c(=O)n3C)c(Cl)cc1F` [Example 33, (S)-6-(2-chloro-4-fluoro-5-methoxyphenyl)-1-methyl-3-(2-oxoazepan-4-yl)thieno[3,2-d]pyrimidine-2,4(1H,3H)-dione], the half-inhibitory concentration (IC50) was 393 nM.

`COc1cc(-c2cc3c(s2)c(=O)n([C@@H]2CCCNC(=O)C2)c(=O)n3CC#N)c(Cl)cc1F` [Example 34, (R)-2-(6-(2-chloro-4-fluoro-5-methoxyphenyl)-2,4-dioxo-3-(2-oxoazepan-4-yl)-3,4-dihydrothieno[3,2-d]pyrimidin-1(2H)-yl)acetonitrile]: the IC50 is below 3.75 nM.
